Test results from PubChem BioAssay AID1671193 (National Center for Advancing Translational Sciences (NCATS), 2021).
Out of some 150,000 compounds screened, about 180 (0.12%) were called active. Inconclusive results, whose numbers are uncertain, are shown with a selection of clear calls. The call rests on the fitted dose curve; in most records, active means well fitted cell-killing curve with a large enough effect; inconclusive means small, poorly fitted or top-dose-only effect, or effect the other way; inactive means flat fitted curve, though single readings scatter. Potencies beside an inconclusive call are fits to weak or partial responses and may not hold up.

assay: GF-AFC viability counterscreen for inhibitors of alpha-synuclein gene (SNCA) expression; settings: HEK-293-SNCA-luc viability, GF-AFC fluorescence, 24 h; series mostly up to 57.1 µM; further: nearly all actives have a fitted effect of over 30% in size
From the text: Assay Submitter (PI): Daniel R. Scoles Ph.D.
Department of Neurology, University of Utah, Salt Lake City, Utah
Accumulation of alpha-synuclein is a main underlying pathological feature of Parkinson's disease (PD) and alpha-synucleinopathies, for which lowering expression of the alpha-synuclein gene (SNCA) is a potential therapeutic avenue. Using a cell-based luciferase reporter of SNCA expression we performed a quantitative high throughput screen (qHTS) of 155,885 compounds in dose response. The screening assay was generated using genome editing to insert the luciferase gene downstream and in frame of the SNCA gene in HEK-293 cells (1). A viability counterscreen using GF-AFC was used to eliminate cytotoxic and false positive compounds. After in silico analysis (clustering, removal of frequent hitter nuisance chemotypes), inhibitor compounds from the primary screen were selected for follow up and re-tested at 11-doses in the SNCA-luc cells (luciferase and GF-AFC confirmation), and in CMV-luc expressing cell line to flag general transcriptional repressors.
Described herein are the results of the GF-AFC viability counterscreen for SNCA inhibitors; inactivity (no decrease in fluorescence signal, not cytotoxic) is the desired output for this assay.
1. Dansithong, W., Paul, S., Scoles, D. R., Pulst, S. M., and Huynh, D. P. (2015) Generation of SNCA Cell Models Using Zinc Finger Nuclease (ZFN) Technology for Efficient High-Throughput Drug Screening. PLoS ONE 10, e0136930.
SEQUENCE No. (e.g., 1, 2, 3, etc.); […] (e.g., Cells, Incubation, Reagent, etc.); VALUE; DESCRIPTION
1; Cells; 4 uL; Dispense 1500 HEK-293-SNCA-luc cells/well into Greiner 1536-well white / solid bottom tissue culture treated plate. The plate was covered with metal lids with gas-exchange holes.
2; Incubate; 24 hours; Incubate at 37C, 5% CO2, 95% RH.
3; Compounds; 23 nL; Compounds and controls were transferred via a Kalypsys Pin Tool (Wako USA) equipped with a 1536-slotted pin array. The plate was covered with metal lids with gas-exchange holes.
4; Incubate; 24 hours; Incubate at 37C, 5% CO2, 95% RH.
5; Dispense; 1 uL; Dispense Gly-Phe-7-amino-4-trifluoromethylcoumarin (GF-AFC, prepared at 125 uM in PBS) was added. The plate was covered with metal lids with gas-exchange holes.
6; Incubate; 30 min; Incubate at 37C, 5% CO2.
7; Detector; Fluorescence; Measure fluorescence with ViewLux microplate reader (PerkinElmer) equipped with 405/10 excitation and 540/25 emission filters.
8; Dispense; 3 uL; Dispense ONE-Glo ([…]) lucifase detection reagent was added to each well. Plates were covered with metal lids with gas-exchange holes.
9; Incubate; 15 min; Incubate at room temperature.
10; Detector; Luminescence; Measure luminescence with ViewLux microplate reader (PerkinElmer) equipped with clear filters.
NOTES (numbers refer to sequence above)
1; HEK-293-SNCA-luc were cultured and suspended in phenol-red free DMEM (4.5 g/L glucose, 25 mM HEPES, cat #21063 (Thermo)).
3; Compounds were added to the assay plate in an 11-point intra plate dose response, 1:3 titration in DMSO with a final concentration range of […]. Vehicle-only plates, with DMSO being pin-transferred to every well, were inserted at the beginning of screening runs to confirm expected assay performance. Activity was normalized to wells containing medium only (-100% activity, full inhibition) and SNCA-luc cells treated with DMSO vehicle control (0% activity), contained on the same plate as test samples.
10; Signals were analyzed, and dose-response curves were fit using the Hill equation. Compounds in curve classes -1.1, -1.2, -2.1, -2.2 in the SNCA-luc assay were considered active. Compounds were eliminated from further consideration if also active (curve class -1.1, -1.2, -1.3, -1.4, -2.1, -2.2, -2.3, -2.4) in the GF-AFC cytotoxicity assay.
Potency means the concentration at half of the fitted maximal effect; tags describe the fitted curve by direction and shape.

Question: With `O=S(=O)(c1cccs1)N1CCCC2(C1)Nc1cccnc1NC2=NC1CCCC1` (stereo not given) as the compound, how does the Potency read?
Answer: Its Potency is “inactive”.

Question: With `COc1ccccc1-c1cccc(CN2CCCC(C(=O)NCc3cccc(Cl)c3)C2)c1` (stereo not given) as the compound, how does the Potency read?
Answer: The Potency was inconclusive: 39.8 µM [cytotoxic, partial curve, poor fit].

Question: Which Potency does the source give for `O=C(NC1CCCC1)c1ccc(CSc2nc3cccnc3n2Cc2ccccc2F)cc1` here?
Answer: Its Potency is inconclusive: 35.5 µM [cytotoxic, single point].

Question: Which Potency does the source give for `COc1ccc(-c2cc(C(=O)NCc3c(C)cc(C)[nH]c3=O)c3c(c2)N(C)CCO3)cn1` here?
Answer: The Potency was “inactive”.

Question: For `COCCn1c(=O)c(CCc2ccccc2)nc2cnc(Nc3cccc(OC)c3)nc21`, which Potency is on record?
Answer: Its Potency is inconclusive: 15.8 µM [rising, single point].

Question: Which Potency does the source give for `COc1ccccc1-c1cc2c(nc1-c1ccccc1)nc(C(=O)NC1CCN(C)CC1)n2C` here?
Answer: The Potency was inconclusive: 25.1 µM [cytotoxic, partial curve, poor fit].

Question: Which Potency does the source give for `CC(=O)O[C@H]1CC(C)(C)CC2[C@@]13[C@H](O)C[C@]1(C)[C@@]2(CCC2[C@@]4(C)CC[C@H](O[C@@H]5OC[C@H](O[C@@H]6O[C@H](CO)[C@@H](O)[C@H](O)[C@H]6O[C@@H]6OC[C@@H](O)[C@H](O)[C@H]6O)[C@H](O)[C@H]5O[C@@H]5O[C@H](CO)[C@@H](O)[C@H](O)[C@H]5O)C(C)(C)C4CC[C@]21C)O[C@@H]3O` (stereo not given in full) here?
Answer: Its Potency is inconclusive: 3.19 µM [cytotoxic, partial curve, poor fit].

Question: For `COc1ccc(C(=O)N2C[C@@H](Oc3cccnc3)C[C@H]2C(N)=O)c(OC)n1`, which Potency is on record?
Answer: Its Potency is “inactive”.

Question: Which Potency does the source give for `COc1cccc(-c2cc(-c3c(C)noc3C)cc3c2C(=O)N(C)C3)c1OC` here?
Answer: The Potency was inconclusive: 15.8 µM [cytotoxic, partial curve, poor fit].

Question: Which Potency does the source give for `Cc1noc(C)c1S(=O)(=O)N1CCn2ncc(C(=O)Nc3ccc(Cl)cc3Cl)c2C1` here?
Answer: The Potency was inconclusive: 25.1 µM [cytotoxic, partial curve, poor fit].

Question: For `Cc1ccc(C2Cn3nnc(-c4noc(-c5ccc(C)s5)n4)c3CO2)cc1` (stereo not given), which Potency is on record?
Answer: Its Potency is “inactive”.

Question: For `CN(C(=O)c1ccc(F)cc1)C1CCCc2ccccc21` (stereo not given), which Potency is on record?
Answer: The Potency was “inactive”.

Question: With `COc1ccc(C(=O)N[C@@H]2CCC[C@@H]2C(=O)NCc2ccccc2C)cn1` as the compound, how does the Potency read?
Answer: Its Potency is inconclusive: 12.6 µM [cytotoxic, partial curve, poor fit].

Question: For `O=C(c1ccc(N2CCC(CO)C2)nc1)N1CCC(Oc2cccnc2)CC1` (stereo not given), which Potency is on record?
Answer: The Potency was inconclusive: 6.31 µM [cytotoxic, partial curve, poor fit].

Question: With `CCN(C(=O)Cn1c(SCC(=O)Nc2ccc(OC)cc2)nc2ccccc21)c1cccc(C)c1` as the compound, how does the Potency read?
Answer: Its Potency is inconclusive: 39.8 µM [cytotoxic, single point].
